Data from PubChem BioAssay AID686971 (National Center for Advancing Translational Sciences (NCATS), 2013).
Where “and” joins values, the source holds several entries; their conditions need not be identical. Equal entries are not always repeated. Screen size: about 360,000 compounds; about 7,500 (2.1%) were called active. The inconclusive results got no clear call from the source; some entries with a clear call stand among them for comparison. The call rests on the fitted dose curve; in most records, active means well fitted cell-killing curve with a large enough effect; inconclusive means small, poorly fitted or top-dose-only effect, or effect the other way, or another doubt; inactive means no such curve, though single readings can be large or run the other way. No potency is given beside an inconclusive call; the fits are too rough.

Assay: qHTS for induction of synthetic lethality in tumor cells producing 2HG: qHTS for the HT-1080-IDH1KD cell line;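 on activity, negative = toxicity: 0% = DMSO wells and -100% = cell-free medium wells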
Settings: HT-1080 IDH1 knockdown viability, ATP luminescence, 48 h; activity, negative = toxicity: at 46.1 µM (top of the series) unless noted
Procedure, shortened: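 Luminescent ATP read-out (CellTiter-Glo, 10 min at room temperature) after 48 h compound exposure at 37 °C gave viability of IDH1-knockdown HT-1080 cells. Activity was normalised to DMSO and cell-free wells, then fitted as concentration-response curves.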
Potency means the concentration at half of the fitted maximal effect; tags describe the fitted curve by direction and shape.

Structure (SMILES) | Potency | activity, negative = toxicity
OC(CNC1CCCC1)COc1ccc(-c2ccccc2)cc1 (centres undefined) | inconclusive [cytotoxic, partial curve] | –
COc1cc(NC(=O)Nc2nc(C(N)Cc3ccc(C(F)(F)F)cc3)cs2)cc(OC)c1OC (centres undefined) | active: 18.4 µM | –
CN(CC(=O)Nc1ccc(OC(F)(F)F)cc1)C(=O)Cc1c(Cl)cccc1Cl | – | inactive: -1.69%
Cc1nc(-n2nnc3ccccc32)c2c3c(sc2n1)CCCC3 | inconclusive [cytotoxic, single point] | –
CCN=c1scc(C)n1/N=C/c1cc(Br)c(O)c(Br)c1 | inconclusive [cytotoxic, partial curve] | –
COc1cccc(C(=O)Nc2ccc3c(C)cc(=O)oc3c2)c1 | – | inactive: 2.14%
COc1ccc([C@@H]2COc3c(ccc4c3C=CC(C)(C)O4)C2)c(OC)c1 | – | inactive: 21.9%
Oc1ccc(Br)cc1-c1cc(-c2ccc(Cl)cc2)n[nH]1 | active: 23.1 µM | –
Cc1cc(NC(=O)c2cccc(C)c2[N+](=O)[O-])no1 | – | inactive: 5.53%
CCOC(=O)c1c(NC(=O)Cn2nc([N+](=O)[O-])c(Br)c2C)sc2c1CCC(C)C2 (centres undefined) | – | inactive: 3.27%
CCn1c(C)nc2cc(C(=O)N/N=C/c3cccc(OC)c3O)ccc21 | inconclusive [cytotoxic, full curve] | –
COc1ccc(C2c3[nH]c4ccccc4c3CCN2CCCn2cccn2)c(C)c1C (centres undefined) | inconclusive [cytotoxic, partial curve] | –
Cc1cccc(NS(=O)(=O)c2ccc(C3CCCCC3)cc2)n1 | inconclusive [cytotoxic, single point] | –
Cc1nn(-c2ccccc2)c(N)c1N=Nc1ccccc1 | inconclusive [cytotoxic, single point] | –
CCCCCCC1(C)NC(=S)N(c2ccccc2)N1 (centres undefined) | inconclusive [cytotoxic, partial curve, poor fit] | –
Cn1ncc(Cl)c1C(=O)NCC1CCCO1 (centres undefined) | – | inconclusive: 30.5%
O=C(Nc1ccc(Oc2ccc(NC(=O)Nc3ccc([N+](=O)[O-])cc3)cc2)cc1)Nc1ccc([N+](=O)[O-])cc1 | inconclusive [cytotoxic, single point] | –
O=C(Nc1ccc2oc(=O)ccc2c1)c1ccc(-c2ccccc2[N+](=O)[O-])o1 | inconclusive [cytotoxic, partial curve] | –
CC1Cc2ccccc2N1C(=O)c1ccc2snnc2c1 (centres undefined) | – | inactive: 0%
COc1ccc(N2CCN(C(=O)c3ccc(CNS(=O)(=O)c4ccc(C)cc4)cc3)CC2)cc1 | inconclusive [cytotoxic, partial curve] | –
O=C(c1cc2c(s1)CCCC2)N1CCN(Cc2ccc3c(c2)OCO3)CC1 | inconclusive [cytotoxic, single point] | –
C=CCn1c(NCCc2ccccc2)nc2c1c(=O)n(C)c(=O)n2C | inconclusive [cytotoxic, partial curve] | –
Cc1ccc(/C(N)=N/OC(=O)c2ccc(F)cc2)cc1 | inconclusive [cytotoxic, single point] | –

Structure (SMILES) | Potency | activity, negative = toxicity
O=C1/C(=C/c2ccncc2)CCC/C1=C\c1ccncc1 | active: 4.11 µM | –
COCCCNCCCCOc1ccc(Br)cc1Cl | inconclusive [cytotoxic, single point] | –
O=C(CN(C(=O)CCC(=O)Nc1nccs1)c1cccc(F)c1)NCc1ccc2c(c1)OCO2 | – | inactive: 2.59%
CCCOc1ccc(/C=N/Nc2ccccc2[N+](=O)[O-])c(O)c1 | inconclusive [cytotoxic, partial curve] | –
CN(C(=O)CSc1nncn1-c1ccccc1)c1ccccc1 | inconclusive [cytotoxic, single point] | –
O=C1c2cc([N+](=O)[O-])ccc2-c2cc(Cl)c(NC(=O)C(F)(F)F)cc21 | – | inactive: 0.0473%
CC(NCc1nc2ccccc2n1C)C12CC3CC(CC(C3)C1)C2 (centres undefined) | inconclusive [cytotoxic, single point] | –
CCn1cc(Cl)c(C(=O)N2N=C(c3ccc4ccccc4c3)CC2c2ccccc2O)n1 (centres undefined) | inconclusive [cytotoxic, partial curve] | –
O=S(=O)(c1ccc(Cl)cc1)N1CCN(c2ncnc3sccc23)CC1 | inconclusive [cytotoxic, single point] | –
CC1(C(=O)O)CCN1C(=O)c1cccc(C(F)(F)F)c1 (centres undefined) | – | inactive: 10.9%
CCOc1ccc2nc(NC(=O)C3CCCN(S(=O)(=O)c4c(C)noc4C)C3)sc2c1 (centres undefined) | inconclusive [cytotoxic, partial curve] | –
N#C/C(=C/c1ccc(Sc2nc3ccccc3[nH]2)o1)c1cccc(Br)c1 | inconclusive [cytotoxic, single point] | –
Cc1ccoc1C(=O)Nc1ccc2ccccc2c1 | inconclusive [cytotoxic, single point] | –
COc1ccc(C(=O)Nc2cccc(-c3ccc4nncn4n3)c2)cc1 | inconclusive [cytotoxic, single point] | –
COc1cc(F)ccc1-c1csc(C(O)c2ccc(F)c(F)c2)n1 (centres undefined) | inconclusive [cytotoxic, single point] | –
COn1c2c(c3c4nonc4ccc31)CCCC2 | inconclusive [cytotoxic, single point] | –
Cc1cccc(-n2cc(CN(C)Cc3nccn3C)c(-c3cccc(F)c3)n2)c1 | inconclusive [cytotoxic, single point] | –
Cc1cc(C)nc(/N=C(\N)Nc2cccc(OCc3ccccc3)c2)n1 | inconclusive [cytotoxic, single point] | –
O=C1c2cccc(OCC(=O)N3CCCc4ccccc43)c2CCN1Cc1ccc(Br)cc1 | inconclusive [cytotoxic, single point] | –
C=CS(=O)(=O)c1ccc(Oc2ccc(S(=O)(=O)C=C)cc2)cc1 | inconclusive [cytotoxic, partial curve, poor fit] | –
Cc1cccc(NC(=O)CSCC(=O)Nc2cc(C(F)(F)F)ccc2N2CCOCC2)c1 | inconclusive [cytotoxic, single point] | –
O=C(NCc1cccs1)c1noc2c1CCCC2 | active: 17.8 µM | –
CC(C)N(C)C1CCN(S(=O)(=O)c2ccc(-c3ccc(=O)[nH]n3)s2)CC1 | – | inactive: -6.33%

Structure (SMILES) | Potency | activity, negative = toxicity
Cc1cc(C)c(NC(=O)CN2C(=O)NC3(CCCc4ccccc43)C2=O)c(Cl)c1 (centres undefined) | – | inactive: -2.89%
O=C(Cn1nc2n(c1=O)-c1ccccc1SC2)N/N=C/c1ccncc1 | – | inconclusive: -4.28% [cytotoxic]
Cc1oc(CC(C)C)cc1C(=O)Nc1cccc2ccccc12 | inconclusive [cytotoxic, single point] | –
CC1CCC(C(C)C)C(OC(=O)Cn2c(-c3ccc(Br)cc3)[n+](C)c3ccccc32)C1 (centres undefined) | active: 20.6 µM and active: 16.4 µM | –
O=C(Nc1cccc(Cl)c1)c1cnn2cccnc12 | inconclusive [cytotoxic, single point] | –
OCC1OC(n2cnc3c(/C=C(\O)c4ccccc4)ncnc32)C(O)C1O (centres undefined) | active: 14.6 µM | –
O=C(Nc1ccc2c(c1)OCO2)C1Cc2c(-c3ccccc3Oc3ccccc3)ccnc2O1 (centres undefined) | inconclusive [cytotoxic, partial curve] | –
O=C(CSc1nc2ccccc2c(=O)n1Cc1ccco1)c1ccc(F)cc1 | inconclusive [cytotoxic, single point] | –
Cc1ccc(Cl)cc1N1CCN(CC(=O)NC2CCCc3ccccc32)CC1 (centres undefined) | inconclusive [cytotoxic, single point] | –
COc1ccc(Cn2nc(-c3ccccc3)c(N3CCCCC3)cc2=O)cc1 | inconclusive [cytotoxic, single point] | –
CCOc1cc(CNCCc2ccc(S(N)(=O)=O)cc2)cc(Cl)c1OCc1ccccc1 | active: 17.8 µM | –
Cc1ccc(OCC(=O)c2cc(C)c(C)cc2C)c([N+](=O)[O-])n1 | inconclusive [cytotoxic, single point] | –
O=C(NCCNc1ccc([N+](=O)[O-])cc1C(F)(F)F)c1ccccc1 | – | inactive: -9.88%
Cc1ccc(C(=O)NCCNc2ncc(C(F)(F)F)cc2Cl)cc1[N+](=O)[O-] | – | inconclusive: -31.8% [cytotoxic]
Cc1cc(S(=O)(=O)N2CCN(c3c(C)cccc3C)CC2)ccc1F | inconclusive [cytotoxic, single point] | –
CCOC(=O)C1=C(CNC(C)(C)CC(C)(C)C)NC(=O)NC1c1cccc([N+](=O)[O-])c1 (centres undefined) | inconclusive [cytotoxic, single point] | –
Cc1cccc(NC(=O)CCCN2C(=S)NC(C)(C)CC2C)c1C (centres undefined) | – | inactive: 6.24%
CC(C)[C@H](NC(=O)N1CC(=O)Nc2ccccc21)C(=O)N1CCC(C(=O)O)CC1 | – | inactive: -1.02%
CN1CCN(C(=O)CCCN2C(=O)/C(=C/c3ccccc3)SC2=S)CC1 | inconclusive [cytotoxic, single point] | –
O=C(NCCCN1CCOCC1)c1cc(-c2cccs2)on1 | active: 11.2 µM | –
O=C(Nc1ccc(Cl)c(C(F)(F)F)c1)C1CCCN(S(=O)(=O)c2cnc[nH]2)C1 (centres undefined) | inconclusive [cytotoxic, single point] | –
O=C(Cn1c(=O)oc2ccccc21)Nc1nc(-c2ccc(Br)cc2)cs1 | – | inconclusive: -33.3% [cytotoxic]
CCCCCCCN1C2=NCCCN2c2ccccc21 | inconclusive [cytotoxic, partial curve] | –
